According to PubChem BioAssay (NCI):
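Cultured in 96-well plates, cells were exposed to test compound for 48 hours across five concentrations. At the GI50, growth is halved. At the TGI there is no net growth.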 Peptide text beside a SMILES is read from it.

system: NCI-H322M lung; assay: NCI anticancer screen, dose series, 48 h

Row | SMILES | GI50 | TGI
1 | Cc1ccc(C2=Nn3c(nnc3-c3ccccc3)SC2)cc1 | 5.16 µM | > 100 µM
2 | CNCc1cccc2c1OCCCCCCC(C)(O)CC(C)(C)S(=O)(=O)c1ccc(cc1)-c1cnc(N)c(n1)C(=O)N2 (stereo unspecified) | 1.45 µM | 4.94 µM
3 | CC(=O)NC(C)(C)C(=O)N[C@@H](C)C(=O)NC(C)(C)C(=O)N[C@@H](C)C(=O)NC(C)(C)C(=O)N[C@@H](C)C(=O)N[C@@H](CCC(N)=O)C(=O)NC(C)(C)C(=O)N[C@H](C(=O)NC(C)(C)C(=O)NCC(=O)N[C@@H](CC(C)C)C(=O)NC(C)(C)C(=O)N1CCC[C@H]1C(=O)N[C@H](C(=O)NC(C)(C)C(=O)NC(C)(C)C(=O)N[C@@H](CCC(N)=O)C(=O)N[C@@H](CCC(N)=O)C(=O)N[C@H](CO)CC1CCCCC1)C(C)C)C(C)C (HELM PEPTIDE1{[ac].[Aib].A.[Aib].A.[Aib].A.Q.[Aib].V.[Aib].G.L.[Aib].P.V.[Aib].[Aib].Q.Q.[OC[C@H](CC1CCCCC1)N[*:1]]}$$$$V2.0) | > 5 µM | > 5 µM
